Measured values: the supplement of paper PMC4967469
Lines with a small IC50 respond at low doses; a fit beyond the top or the lowest dose is shown as a bound at that dose. AUC is the area under the same curve over the 256-fold range up to the top dose, as a fraction; values near 1 show little effect. For part of these data: A top dose marked as inferred was derived from the fitted curves, not read from the paper. For part of these data: An entry number marks a drug with two screens in the source, which often give different values.

What was measured:
Test in all cases: Viability of human cancer cell lines after 72 h of drug (GDSC screen)
ZM-447439 = compound: COc1cc2c(Nc3ccc(NC(=O)c4ccccc4)cc3)ncnc2cc1OCCCN1CCOCC1 [ZM-447439]; details: top dose inferred
Experimental: (§1)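 Human cancer cell lines in 384-well plates, medium with 10% serum, drug for 72 h over a 256-fold dose range (nine 2-fold or five 4-fold steps up to the top dose). Adherent lines were fixed and stained with the nucleic acid dye Syto60, suspension lines read with resazurin; signal relative to control wells, capped at 0 and 100%. One two-parameter sigmoid per drug and line, fitted in a mixed model over all curves with the slope shared within a line.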

PD-0332991 = compound: CC(=O)c1c(C)c2cnc(Nc3ccc(N4CCNCC4)cn3)nc2n(C2CCCC2)c1=O [PD-0332991]
Experimental: as §1

AZD6244 = compound: Cn1cnc2c(F)c(Nc3ccc(Br)cc3Cl)c(C(=O)NOCCO)cc21 [AZD6244]; details: screen: GDSC drug entry 1062
Experimental: as §1

| Cell Line | AUC (ZM-447439) | IC50 (ZM-447439) | AUC (PD-0332991) | IC50 (PD-0332991) | AUC (AZD6244) | IC50 (AZD6244) |
| --- | --- | --- | --- | --- | --- | --- |
| GR-ST (lymphoblastic leukaemia, suspension, top dose 4 µM) | 0.949 | > 4 µM | 0.857 | > 4 µM | 0.898 | > 4 µM |
| GRANTA-519 (B-cell lymphoma, suspension, top dose 4 µM) | 0.951 | > 4 µM | 0.986 | > 4 µM | 0.991 | > 4 µM |
| GT3TKB (stomach, adherent, top dose 2 µM) | 0.928 | > 2 µM | 0.865 | 1.42 µM | 0.932 | > 2 µM |
| H4 (glioma, adherent, top dose 4 µM) | 0.772 | 1.53 µM | 0.759 | 1.39 µM | 0.926 | > 4 µM |
| H9 (lymphoid neoplasm, suspension, top dose 4 µM) | 0.945 | > 4 µM | 0.992 | > 4 µM | 0.992 | > 4 µM |
| H290 (mesothelioma, adherent, top dose 4 µM) | 0.909 | > 4 µM | 0.602 | 0.465 µM | 0.989 | > 4 µM |
| H2369 (mesothelioma, adherent, top dose 4 µM) | 0.936 | > 4 µM | 0.667 | 0.743 µM | 0.964 | > 4 µM |
| H2373 (mesothelioma, adherent, top dose 4 µM) | 0.97 | > 4 µM | 0.832 | 3.5 µM | 0.891 | > 4 µM |
| H2461 (mesothelioma, adherent, top dose 4 µM) | 0.982 | > 4 µM | 0.849 | > 4 µM | 0.98 | > 4 µM |
| H2591 (mesothelioma, adherent, top dose 2 µM) | 0.9 | > 2 µM | 0.611 | 0.278 µM | 0.763 | 0.931 µM |
| H2595 (mesothelioma, adherent, top dose 4 µM) | 0.901 | > 4 µM | 0.904 | > 4 µM | 0.891 | > 4 µM |
| H2731 (mesothelioma, adherent, top dose 4 µM) | 0.968 | > 4 µM | 0.851 | 3.77 µM | 0.974 | > 4 µM |
| H2795 (mesothelioma, adherent, top dose 4 µM) | 0.948 | > 4 µM | 0.844 | 2.79 µM | 0.829 | 2.43 µM |
| H2869 (mesothelioma, adherent, top dose 4 µM) | 0.983 | > 4 µM | 0.946 | > 4 µM | 0.981 | > 4 µM |
| H3255 (lung adenocarcinoma, adherent, top dose 4 µM) | 0.908 | > 4 µM | 0.904 | > 4 µM | 0.933 | > 4 µM |
| H-EMC-SS (chondrosarcoma, adherent, top dose 4 µM) | 0.967 | > 4 µM | 0.764 | 1.87 µM | 0.54 | 0.333 µM |
| HAL-01 (lymphoblastic leukaemia, suspension, top dose 4 µM) | 0.94 | > 4 µM | 0.7 | 0.842 µM | 0.969 | > 4 µM |
| HARA (lung squamous cell carcinoma, adherent, top dose 4 µM) | 0.876 | > 4 µM | 0.696 | 0.98 µM | 0.973 | > 4 µM |
| HC-1 (hairy cell leukaemia, suspension, top dose 4 µM) | 0.959 | > 4 µM | 0.909 | > 4 µM | 0.974 | > 4 µM |
| HCC38 (breast, adherent, top dose 4 µM) | 0.965 | > 4 µM | 0.968 | > 4 µM | 0.985 | > 4 µM |
| HCC202 (breast, adherent, top dose 4 µM) | 0.981 | > 4 µM | 0.981 | > 4 µM | 0.98 | > 4 µM |
| HCC1143 (breast, adherent, top dose 4 µM) | 0.894 | > 4 µM | 0.748 | 1.76 µM | 0.969 | > 4 µM |

| Cell Line | AUC (ZM-447439) | IC50 (ZM-447439) | AUC (PD-0332991) | IC50 (PD-0332991) | AUC (AZD6244) | IC50 (AZD6244) |
| --- | --- | --- | --- | --- | --- | --- |
| HCC1187 (breast, suspension, top dose 4 µM) | 0.826 | 2.26 µM | 0.977 | > 4 µM | 0.961 | > 4 µM |
| HCC1395 (breast, adherent, top dose 4 µM) | 0.946 | > 4 µM | 0.908 | > 4 µM | 0.973 | > 4 µM |
| HCC1419 (breast, adherent, top dose 4 µM) | 0.95 | > 4 µM | 0.973 | > 4 µM | 0.921 | > 4 µM |
| HCC1428 (breast, adherent, top dose 4 µM) | 0.986 | > 4 µM | 0.918 | > 4 µM | 0.98 | > 4 µM |
| HCC1569 (breast, adherent, top dose 4 µM) | 0.945 | > 4 µM | 0.971 | > 4 µM | 0.968 | > 4 µM |
| HCC1937 (breast, adherent, top dose 4 µM) | 0.981 | > 4 µM | 0.97 | > 4 µM | 0.981 | > 4 µM |
| HCC1954 (breast, adherent, top dose 4 µM) | 0.932 | > 4 µM | 0.943 | > 4 µM | 0.901 | > 4 µM |
| HCC2157 (breast, suspension, top dose 4 µM) | 0.832 | 2.74 µM | 0.986 | > 4 µM | 0.975 | > 4 µM |
| HCC2218 (breast, suspension, top dose 4 µM) | 0.982 | > 4 µM | 0.983 | > 4 µM | 0.979 | > 4 µM |
| HCC-15 (lung squamous cell carcinoma, adherent, top dose 4 µM) | 0.874 | > 4 µM | 0.938 | > 4 µM | 0.967 | > 4 µM |
| HCC-44 (lung adenocarcinoma, adherent, top dose 2 µM) | 0.907 | > 2 µM | 0.981 | > 2 µM | 0.794 | 0.897 µM |
| HCC-56 (large intestine, adherent, top dose 4 µM) | 0.918 | > 4 µM | 0.968 | > 4 µM | 0.524 | 0.292 µM |
| HCC-78 (lung adenocarcinoma, adherent, top dose 4 µM) | 0.904 | > 4 µM | 0.781 | 1.97 µM | 0.884 | > 4 µM |
| HCC-827 (lung adenocarcinoma, adherent, top dose 4 µM) | 0.931 | > 4 µM | 0.853 | 3.91 µM | 0.906 | > 4 µM |
| HCT-15 (large intestine, adherent, top dose 4 µM) | 0.961 | > 4 µM | 0.854 | 3.47 µM | 0.987 | > 4 µM |
| HDLM-2 (Hodgkin lymphoma, suspension, top dose 4 µM) | 0.857 | 3.17 µM | 0.912 | > 4 µM | 0.987 | > 4 µM |
| HDQ-P1 (breast, adherent, top dose 4 µM) | 0.954 | > 4 µM | 0.983 | > 4 µM | 0.85 | 3.96 µM |
| HEC-1 (endometrium, adherent, top dose 4 µM) | 0.896 | > 4 µM | 0.925 | > 4 µM | 0.982 | > 4 µM |
| HGC-27 (stomach, adherent, top dose 4 µM) | 0.817 | 1.82 µM | 0.621 | 0.509 µM | 0.975 | > 4 µM |
| HH (T-cell leukaemia, suspension, top dose 4 µM) | 0.916 | > 4 µM | 0.676 | 0.916 µM | 0.95 | > 4 µM |
| HL-60 (acute myeloid leukaemia, suspension, top dose 4 µM) | 0.836 | 2.28 µM | 0.772 | 1.39 µM | 0.898 | > 4 µM |
| HLE (liver, adherent, top dose 2 µM) | 0.915 | > 2 µM | 0.929 | > 2 µM | 0.953 | > 2 µM |

| Cell Line | AUC (ZM-447439) | IC50 (ZM-447439) | AUC (PD-0332991) | IC50 (PD-0332991) | AUC (AZD6244) | IC50 (AZD6244) |
| --- | --- | --- | --- | --- | --- | --- |
| HN (head and neck, adherent, top dose 4 µM) | 0.798 | 1.77 µM | 0.741 | 1.16 µM | 0.663 | 0.688 µM |
| HO-1-u-1 (head and neck, adherent, top dose 4 µM) | 0.98 | > 4 µM | 0.945 | > 4 µM | 0.988 | > 4 µM |
| HOP-62 (lung adenocarcinoma, adherent, top dose 4 µM) | 0.959 | > 4 µM | 0.88 | > 4 µM | 0.982 | > 4 µM |
| HOS (osteosarcoma, adherent, top dose 4 µM) | 0.902 | 3.71 µM | 0.749 | 1.12 µM | 0.959 | > 4 µM |
| HSC-2 (head and neck, adherent, top dose 4 µM) | 0.967 | > 4 µM | 0.909 | > 4 µM | 0.947 | > 4 µM |
| HSC-39 (stomach, suspension, top dose 4 µM) | 0.811 | 1.77 µM | 0.85 | 2.42 µM | 0.985 | > 4 µM |
| HT (B-cell lymphoma, suspension, top dose 4 µM) | 0.948 | > 4 µM | 0.973 | > 4 µM | 0.984 | > 4 µM |
| HT-3 (cervix, adherent, top dose 4 µM) | 0.984 | > 4 µM | 0.987 | > 4 µM | 0.987 | > 4 µM |
| HT-29 (large intestine, adherent, top dose 4 µM) | 0.944 | > 4 µM | 0.742 | 1.23 µM | 0.982 | > 4 µM |
| HT-115 (large intestine, adherent, top dose 4 µM) | 0.944 | > 4 µM | 0.946 | > 4 µM | 0.991 | > 4 µM |
| HT-144 (melanoma, adherent, top dose 4 µM) | 0.918 | > 4 µM | 0.836 | 3.1 µM | 0.389 | 0.119 µM |
| HT-1080 (fibrosarcoma, adherent, top dose 4 µM) | 0.876 | 3.26 µM | 0.753 | 1.21 µM | 0.788 | 1.55 µM |
| HT-1197 (bladder, adherent, top dose 4 µM) | 0.985 | > 4 µM | 0.98 | > 4 µM | 0.956 | > 4 µM |
| HT-1376 (bladder, adherent, top dose 4 µM) | 0.966 | > 4 µM | 0.97 | > 4 µM | 0.915 | > 4 µM |
| Hey (ovary, adherent, top dose 4 µM) | 0.857 | 2.95 µM | 0.585 | 0.42 µM | 0.716 | 0.979 µM |
| Hs633T (fibrosarcoma, adherent, top dose 4 µM) | 0.849 | 2.21 µM | 0.726 | 0.948 µM | 0.648 | 0.59 µM |
| Hs683 (glioma, adherent, top dose 4 µM) | 0.929 | > 4 µM | 0.887 | > 4 µM | 0.98 | > 4 µM |
| Hs746T (stomach, adherent, top dose 4 µM) | 0.971 | > 4 µM | 0.802 | 2.83 µM | 0.872 | > 4 µM |
| Hs766T (pancreas, adherent, top dose 4 µM) | 0.979 | > 4 µM | 0.855 | > 4 µM | 0.942 | > 4 µM |
| Hs939-T (melanoma, adherent, top dose 4 µM) | 0.962 | > 4 µM | 0.879 | > 4 µM | 0.965 | > 4 µM |
| HuCCT1 (biliary tract, adherent, top dose 4 µM) | 0.928 | > 4 µM | 0.88 | > 4 µM | 0.718 | 1.12 µM |
